PubChem BioAssay AID1476 (National Center for Advancing Translational Sciences (NCATS), 2009)
Hit rate of the full screen: of about 200,000 compounds, about 4,500 (2.2%) were called active. This list was built around the results that the source calls inconclusive (neither active nor inactive); the mix of calls is not that of the screen. Calls follow the shape of the dose curve; as a rule, active = well fitted inhibition curve with a large enough effect; inconclusive = small, poorly fitted or top-dose-only effect, or effect the other way; inactive = flat fitted curve, though single readings scatter. Where the call is inconclusive, the potency comes from a doubtful curve fit.

Each molecule was assayed against Cruzipain (Trypanosoma cruzi) (UniProt P25779) (assay: qHTS Assay for Promiscuous and Specific Inhibitors of Cruzain (without detergent)). Settings: purified cruzain, Z-FR-AMC fluorescence, no detergent.
Outline: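 Detergent-free condition (0.00005% Triton X-100) in acetate buffer pH 5.5 with DTT. 1.5 nM enzyme and compound were pre-mixed 15 min, then 2 uM Z-FR-AMC substrate added; reaction progress from fluorescence change between first and third reads (60 s).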
Also: nearly all actives have a fitted effect of over 40% in size.
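For max response, negative = inhibition in this document: plate controls were enzyme without inhibitor for no effect and buffer without enzyme for full effect.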
Potency is read from the fitted curve at half-maximal effect; tags tell the direction and shape of the fitted curve.

UniProt P25779, sequence (P25779 whole entry, looked up): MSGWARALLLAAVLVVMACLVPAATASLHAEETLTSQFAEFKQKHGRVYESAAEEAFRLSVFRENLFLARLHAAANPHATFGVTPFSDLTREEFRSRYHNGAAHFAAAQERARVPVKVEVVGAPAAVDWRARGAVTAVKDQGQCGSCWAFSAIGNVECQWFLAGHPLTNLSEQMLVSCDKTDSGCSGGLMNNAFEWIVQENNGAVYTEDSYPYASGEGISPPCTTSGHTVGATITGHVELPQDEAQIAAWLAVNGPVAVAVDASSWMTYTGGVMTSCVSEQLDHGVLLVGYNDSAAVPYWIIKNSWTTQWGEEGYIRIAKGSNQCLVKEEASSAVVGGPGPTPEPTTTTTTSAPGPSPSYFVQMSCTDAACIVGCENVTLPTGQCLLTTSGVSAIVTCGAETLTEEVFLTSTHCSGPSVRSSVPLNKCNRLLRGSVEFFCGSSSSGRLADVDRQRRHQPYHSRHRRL

Q: Which max response, negative = inhibition does the source give for CCOC(=O)C1(C)C=C(Nc2ccc(C)cc2)C(=O)N1c1ccccc1 (stereo not given) here?
A: inactive: 4.77%

Q: COc1ccc(/C=C2\SC(=O)N=C2N)cc1 was tested. Which Potency did it give?
A: active: 31.6 µM

Q: O=C1/C(=C/c2cccnc2)Oc2cc(OS(=O)(=O)c3ccc(F)cc3)ccc21 was tested. Which Potency did it give?
A: inconclusive: 31.6 µM [activator, single point]

Q: N#CC(=C(/N)Sc1ccccc1N)/C(C#N)=C(/N)Sc1ccccc1N was tested. Which Potency did it give?
A: inconclusive: 31.6 µM [inhibitor, partial curve, poor fit]

Q: For O=C1C(Cl)=C(N2CCN(c3ccccc3[N+](=O)[O-])CC2)C(=O)c2ccccc21, which Potency is on record?
A: inconclusive: 31.6 µM [inhibitor, single point]

Q: O=C(CSc1nnc(-c2cccs2)o1)Oc1ccc(Cl)cc1 was tested. Which max response, negative = inhibition did it give?
A: inactive: -12.3%

Q: For CCOC(=O)c1[nH]c(C)c(CN(CCc2ccccc2)C(=O)CCC(=O)O)c1C, which Potency is on record?
A: inconclusive: 31.6 µM [activator, single point]

Q: For COc1cc2c(=O)c(S(=O)(=O)c3ccc(C)cc3)cn(Cc3cccc(C)c3)c2cc1OC, which Potency is on record?
A: inconclusive: 25.1 µM [activator, partial curve]

Q: Which Potency does the source give for O=c1oc2c(CN3CCOCC3)c(O)c(Cl)cc2c2c1CCCC2 here?
A: inconclusive: 25.1 µM [inhibitor, single point]

Q: With COc1cccc(NC(=O)c2cc(-c3cccnc3)nc3c(Cl)cccc23)c1 as the molecule, how does the Potency read?
A: inconclusive: 31.6 µM [inhibitor, single point]

Q: How did the Potency turn out when COc1ccc(NC(=O)CN(c2cccc(C)c2C)S(=O)(=O)c2ccccc2)cc1OC was run?
A: inconclusive: 39.8 µM [activator, single point]

Q: With CCc1ccc2nc(N(Cc3cccnc3)C(=O)c3cccs3)sc2c1 as the molecule, how does the max response, negative = inhibition read?
A: inactive: 2.56%

Q: With O=C(c1ccncc1)N1CCC[C@@]2(CCN(c3cccc(-c4ccccc4)c3)C2)C1 as the molecule, how does the Potency read?
A: inconclusive: 39.8 µM [activator, single point]

Q: Which max response, negative = inhibition does the source give for CN(C)c1ccc(NC(=O)Cn2c(SCc3ccc(F)cc3)nc3cccnc32)cc1 here?
A: inactive: 4.98%

Q: Which Potency does the source give for Brc1ccc2[nH]c3c(N4CCc5ccccc5C4)ncnc3c2c1 here?
A: inconclusive: 39.8 µM [inhibitor, single point]

Q: For Cc1nc(/N=C(\N)NC(=O)N2c3ccccc3Sc3ccccc32)nc2ccccc12, which Potency is on record?
A: active: 7.94 µM

Q: With C=CC(=O)c1ccc2ccccc2c1 as the molecule, how does the Potency read?
A: active: 2.51 µM

Q: How did the max response, negative = inhibition turn out when CCOC(=O)c1ccc(NC(=O)c2cnc(N3CCCC3)nc2C)cc1 was run?
A: inactive: 11.9%

Q: For O=C(c1cccc(C(=O)N2CCN(c3ccc(F)cc3)CC2)c1)N1CCN(c2ccc(F)cc2)CC1, which Potency is on record?
A: inconclusive: 25.1 µM [activator, partial curve]

Q: Which Potency does the source give for O=C(/C=C/c1cccc(Cl)c1)c1nc2ccccc2[nH]1 here?
A: inconclusive: 31.6 µM [inhibitor, single point]

Q: CC(C)C(=O)Nc1ccc(NC(=O)c2ccc([N+](=O)[O-])cc2Cl)cc1 was tested. Which Potency did it give?
A: inconclusive: 39.8 µM [inhibitor, single point]

Q: Cc1cc(-c2ccc(C)c(S(=O)(=O)N(Cc3cccs3)C(C)C)c2)on1 was tested. Which Potency did it give?
A: inconclusive: 6.31 µM [inhibitor, single point]

Q: CCOC(=O)c1cc(C(=O)OCC)c2ccccn2c1=O was tested. Which Potency did it give?
A: inconclusive: 31.6 µM [activator, single point]

Q: For N#C/C(=C\Nc1ccc2c(c1)OCCO2)c1nc(-c2ccccc2)cs1, which Potency is on record?
A: inconclusive: 31.6 µM [inhibitor, single point]

Q: For CCc1ccc2occ(CC(=O)Nc3c(C(=O)Nc4ccc(Cl)cc4)oc4ccccc34)c2c1, which Potency is on record?
A: active: 10 µM

Q: With COc1ccc(-n2c(=O)c3sc4ccccc4c3n(CC(=O)N3CCCC3)c2=O)cc1 as the molecule, how does the max response, negative = inhibition read?
A: inactive: 4.55%

Q: Cc1c(Br)c([N+](=O)[O-])nn1CC(=O)Nc1sc2c(c1C(=O)OC(C)C)CCCC2 was tested. Which Potency did it give?
A: active: 12.6 µM

Q: How did the max response, negative = inhibition turn out when Cc1ccc(Cn2c(SCc3ccc(C(=O)NCCc4ccccc4)cc3)nc3ccncc32)cc1 was run?
A: inactive: -17.9%

Q: How did the Potency turn out when COC(=O)c1cc(=O)n(Cc2ccc3c(c2)OCO3)c(=Nc2ccc(F)c(Cl)c2)s1 was run?
A: active: 20 µM

Q: Which Potency does the source give for Cc1ccc(S(=O)(=O)N2CCN(c3ccc4nnc(-c5ccccc5)n4n3)CC2)cc1 here?
A: inconclusive: 25.1 µM [activator, partial curve]

Q: For CN(C)c1ccc(CNC(=O)Cn2ccc3cc(S(=O)(=O)N4CCCCCC4)ccc32)cc1, which max response, negative = inhibition is on record?
A: inactive: -12%

Q: For CCN1C(=O)/C(=C\N(C)C)c2ccccc21, which max response, negative = inhibition is on record?
A: inactive: -5.89%

Q: Cc1ccc(-c2nn(-c3cc(Cl)ccc3[N+](=O)[O-])c(=O)c3ccccc23)cc1C was tested. Which Potency did it give?
A: active: 12.6 µM

Q: With COc1ccc(C2c3c(ccc4ccccc34)Oc3ncn4nc(Cc5ccccc5)nc4c32)cc1OC (stereo not given) as the molecule, how does the Potency read?
A: inconclusive: 39.8 µM [inhibitor, single point]

Q: Which Potency does the source give for COc1cccc2cc(S(=O)(=O)c3ccccc3)c(=Nc3ccc4c(c3)OCCO4)oc12 here?
A: inconclusive: 39.8 µM [inhibitor, single point]

Q: With CC1=C(C(=O)OCCOC(C)C)C(c2cc3c(cc2Br)OCO3)C2=C(CCCC2=O)N1 (stereo not given) as the molecule, how does the Potency read?
A: inconclusive: 31.6 µM [activator, single point]

Q: COC(=O)c1c(C)[nH]c(C(=O)/C=C/c2cccc(Cl)c2)c1C was tested. Which Potency did it give?
A: inconclusive: 39.8 µM [inhibitor, single point]

Q: For C/C(=N/NC(=O)CCC(=O)Nc1cccc(Cl)c1)c1ccc(C)cc1, which Potency is on record?
A: inconclusive: 39.8 µM [inhibitor, single point]

Q: Which Potency does the source give for c1ccc(-c2ccc(N3CC4(CCNCC4)C3)cc2)cc1 here?
A: inconclusive: 39.8 µM [inhibitor, single point]

Q: With COc1ccc(Cn2nnc3c(=O)[nH]c(C4CCN(C(=O)c5ccccc5Cl)CC4)nc32)cc1 as the molecule, how does the Potency read?
A: inconclusive: 39.8 µM [activator, single point]

Q: With CC(C)c1ccc(N(CC(=O)NCCSC(C)(C)C)S(C)(=O)=O)cc1 as the molecule, how does the Potency read?
A: inconclusive: 25.1 µM [activator, single point]

Q: Cc1ccc2c(CC(=O)N(Cc3cccc(Cl)c3)C3CCS(=O)(=O)C3)coc2c1 (stereo not given) was tested. Which Potency did it give?
A: inconclusive: 25.1 µM [activator, single point]

Q: How did the max response, negative = inhibition turn out when CCOC(=O)C1CCCN(C(=O)c2ccc(NC(=O)c3nsc4ccccc34)cc2)C1 (stereo not given) was run?
A: inactive: 6.75%

Q: Which Potency does the source give for Cc1cc(/C=N/NC(=O)CC2(C)OCCO2)c(C)n1-c1cc(Cl)cc(Cl)c1 here?
A: inconclusive: 39.8 µM [activator, single point]

Q: How did the Potency turn out when CCCCOC(=O)c1cc(C)nc2ccc(Br)cc12 was run?
A: inconclusive: 39.8 µM [activator, single point]

Q: With CCC(C)NC(=O)c1c(N)n(CC2CCCO2)c2nc3ccccc3nc12 (stereo not given) as the molecule, how does the Potency read?
A: inconclusive: 31.6 µM [activator, single point]

Q: CN1CCC[C@@H](CC2c3ccccc3Sc3ccccc32)C1 was tested. Which max response, negative = inhibition did it give?
A: inactive: -3.9%

Q: With CC(C)(C)OC(=O)N1CCC(c2c(C(=O)N3CCCCC3)cnn2-c2ccc(F)cc2F)CC1 as the molecule, how does the Potency read?
A: inconclusive: 25.1 µM [activator, partial curve]

Q: Which max response, negative = inhibition does the source give for O=C(O)c1ccc(S(=O)(=O)N=Nc2c(O)[nH]c3ccccc23)cc1 here?
A: inactive: -5.34%

Q: How did the Potency turn out when COc1cccc(Nc2sc(C(=O)c3ccc(Cl)cc3)c(N)c2C(=O)NCCc2ccc(OC)c(OC)c2)c1 was run?
A: inconclusive: 39.8 µM [activator, single point]

Q: How did the Potency turn out when COc1ccc(N(CC(=O)NC2CCCC2)C(=O)Cn2nnc(-c3ccc(C)cc3)n2)cc1OC was run?
A: inconclusive: 31.6 µM [activator, single point]

Q: CCCN(Cc1cccs1)C(=O)Nc1ccc(F)c(Cl)c1 was tested. Which Potency did it give?
A: inconclusive: 20 µM [inhibitor, partial curve]

Q: Which Potency does the source give for CC(C)(C)c1nc2scc(-c3ccc(Cl)cc3)c2c(=O)o1 here?
A: inconclusive: 31.6 µM [inhibitor, single point]

Q: With CCc1ccc(NC(=O)c2ccc(F)c(S(=O)(=O)NCCc3ccc(OC)c(OC)c3)c2)cc1 as the molecule, how does the Potency read?
A: inconclusive: 39.8 µM [activator, single point]

Q: Cc1c(O)nc(SC2CC(=O)N(c3ccccc3)C2=O)[nH]c1=O (stereo not given) was tested. Which max response, negative = inhibition did it give?
A: inactive: -9.85%

Q: Which Potency does the source give for Cc1cc(C)c(CN2C(=O)c3ccccc3S(=O)(=O)c3ccc(C(=O)OCC4CCCO4)cc32)c(C)c1 (stereo not given) here?
A: active: 12.6 µM

Q: CO[C@@]1(NC(=O)Cc2cccs2)C(=O)N2C(C(=O)O)=C(COC(N)=O)CS[C@@H]21 was tested. Which Potency did it give?
A: inconclusive: 31.6 µM [activator, single point]

Q: For CC(C)c1ccc(NC(=O)Cn2c(=O)n(Cc3nc(-c4ccccc4)no3)c(=O)c3cc4c(cc32)OCO4)cc1, which Potency is on record?
A: active: 12.6 µM

Q: CNc1nc(-c2c[nH]c3ccccc23)cs1 was tested. Which Potency did it give?
A: inconclusive: 39.8 µM [inhibitor, single point]

Q: Which max response, negative = inhibition does the source give for CC1(OC(=O)CCc2ccccc2)C(=O)C=C2C=C(c3ccc(C#N)cc3)OC=C2C1=O (stereo not given) here?
A: inactive: -16.5%

Q: Which Potency does the source give for COCCNC(=O)C(=O)NCC(c1cccnc1)N1CCN(c2ccccc2)CC1 (stereo not given) here?
A: inconclusive: 39.8 µM [activator, single point]

Q: For Cc1ccccc1C(c1c(C)n(C)n(-c2ccccc2)c1=O)c1c(C)n(C)n(-c2ccccc2)c1=O, which max response, negative = inhibition is on record?
A: inactive: 3.88%

Q: For COc1cc(-c2nnc(SCC(=O)N3c4ccccc4Sc4ccccc43)o2)cc(OC)c1OC, which Potency is on record?
A: inconclusive: 39.8 µM [activator, single point]

Q: Which Potency does the source give for CCN(CC)S(=O)(=O)c1cccc(-c2nnc(SC(C)C(N)=O)n2CCc2ccccc2)c1 (stereo not given) here?
A: inconclusive: 39.8 µM [activator, single point]

Q: For Cc1ccccc1Cn1c(SCc2ccc(C(=O)NCCc3ccccc3)cc2)nc2ccncc21, which max response, negative = inhibition is on record?
A: inactive: 2.25%
